# Data published in the supplement of paper PMC3334620.
# The full ranking holds about 33,000 sequences; the median of “E-score (-0.5 to 0.5)” is about -0.041, and the highest 2% start at about 0.37. This is one part of the list.
# Target: T1, Ecm22 (UniProt Q05958)
# T1 sequence: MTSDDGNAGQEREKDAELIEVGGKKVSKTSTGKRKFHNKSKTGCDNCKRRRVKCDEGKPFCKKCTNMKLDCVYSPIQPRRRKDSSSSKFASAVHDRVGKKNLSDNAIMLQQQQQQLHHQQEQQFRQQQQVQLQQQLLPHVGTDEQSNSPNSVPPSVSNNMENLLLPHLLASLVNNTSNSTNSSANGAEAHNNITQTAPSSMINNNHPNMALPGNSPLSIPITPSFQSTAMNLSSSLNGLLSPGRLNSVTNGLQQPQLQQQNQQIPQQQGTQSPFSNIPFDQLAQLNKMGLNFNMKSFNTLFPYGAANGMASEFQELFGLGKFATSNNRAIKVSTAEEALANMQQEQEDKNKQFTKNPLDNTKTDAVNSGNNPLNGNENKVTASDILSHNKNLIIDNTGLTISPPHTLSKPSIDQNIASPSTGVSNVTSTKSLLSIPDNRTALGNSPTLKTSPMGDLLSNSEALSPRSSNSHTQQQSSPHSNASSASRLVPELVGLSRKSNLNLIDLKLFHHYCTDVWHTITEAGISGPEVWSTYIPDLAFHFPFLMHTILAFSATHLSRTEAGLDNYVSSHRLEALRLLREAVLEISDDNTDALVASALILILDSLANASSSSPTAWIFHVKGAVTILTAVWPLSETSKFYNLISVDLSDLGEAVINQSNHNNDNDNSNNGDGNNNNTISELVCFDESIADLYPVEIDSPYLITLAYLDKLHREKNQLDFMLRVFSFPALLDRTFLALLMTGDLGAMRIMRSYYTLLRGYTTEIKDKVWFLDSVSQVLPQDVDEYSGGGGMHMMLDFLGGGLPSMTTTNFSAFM
# Experiment: PBM E-score (8-mer binding enrichment) (E-score (-0.5 to 0.5)); higher = stronger / more preferred TF binding; most listed sequences are background and not binding sites
# Details: protein concentration: 200 nM; construct: GST-full length
# Procedure: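 Universal 'all 10-mer' protein binding microarrays (Agilent AMADID 015681) probed with GST-tagged S. cerevisiae TFs (full-length or DBD) made by in vitro transcription/translation (PURExpress), about 100-200 nM. Bound TF was detected with fluorescent anti-GST. Each ungapped 8-mer (which stands for itself and its reverse complement) is scored by the PBM enrichment score (E-score), a modified Wilcoxon-Mann-Whitney statistic from -0.5 to +0.5, computed with the Universal PBM Analysis Suite. Scale: above 0.35 generally sequence-specific binding.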
row,Sequence,PBM E-score
1,CGGAGCGC,-0.059
2,CAGCACCA,-0.276
3,TAGGCTCA,-0.298
4,CAGATCCG,0.0117
5,AAATAGCC,-0.291
6,CACAACTG,-0.0984
7,CTTGGAAC,-0.00278
8,GGCAGCAC,-0.254
9,CGAGTCAG,0.0491
10,CTATACCA,-0.15
11,GGACGTAC,0.126
12,AGTAGTAT,0.116
13,AACTTGAT,-0.0958
14,CACTCCAG,0.0257
15,ACAGCAGC,-0.0121
16,CAGCTGAG,-0.192
17,ACTTACCT,-0.142
18,CGCCAATA,0.00375
19,CGACGGCG,0.183
20,AATGCCTA,-0.227
21,GAAGTAAA,-0.0653
22,CTAGGCGC,-0.117
23,TCATGGGA,-0.222
24,AGTGAGAC,-0.049
25,TGAATCCA,-0.16

row,Sequence,PBM E-score
1,CTGAACCA,-0.235
2,AAAAAGTC,-0.075
3,AACGACAT,0.434
4,AATCGTGC,0.221
5,GTCCAAAA,-0.152
6,CAACGAGC,0.336
7,AAGGCTGC,-0.181
8,CTTTCAGA,-0.105
9,TGCAGACA,-0.234
10,GACCATGA,-0.083
11,ACCAGACA,0.0442
12,CTAGTCGA,-0.115
13,AACGACGG,0.444
14,CGCGAGTA,0.249
15,CCACATTA,-0.0288
16,ACGGAGGA,0.151
17,CCTCGGGC,0.0916
18,CATTGTGA,-0.127
19,AGGCGCTC,-0.0453
20,GATGACAA,-0.00824
21,AAACTGTG,-0.214
22,GGCCTCAC,-0.18
23,ATATGCGA,0.35
24,ATCTGCTG,0.00714
25,GCGAACAC,0.0536

row,Sequence,PBM E-score
1,CCTTGCAG,-0.0987
2,TAACTCAA,-0.152
3,CTCCCCCA,-0.218
4,CCAGGGGC,-0.336
5,CTCACCTC,0.0368
6,CTGGAAGC,-0.25
7,AATGCACC,-0.138
8,CATAGAGC,-0.272
9,AAAGCTAT,0.0112
10,AATTAACC,0.0103
11,ATAAGAAT,0.059
12,ATACGACA,0.469
13,ACCAGTAA,-0.0467
14,ACATTACA,-0.0498
15,AGCAACGC,0.0942
16,AAAGGCCA,-0.183
17,GATCCATA,0.0662
18,ACTGACTC,-0.141
19,TGCTTGAA,0.085
20,ACCCGGTA,0.155
21,GAACGCCA,0.0205
22,CCTCTTGC,-0.16
23,GAGGTTCC,0.083
24,CTGGGTTA,-0.169
25,CAAGTGAC,-0.132

row,Sequence,PBM E-score
1,CTGAGGTC,-0.129
2,ACGACCAC,0.35
3,AGAGGCGC,-0.0791
4,ACGCCCCT,-0.107
5,GGCTAGAA,0.0305
6,AGAGTGAA,-0.0771
7,CGGCGCCC,-0.0635
8,GAGCTCAA,0.0703
9,CGGCTCTC,-0.0678
10,ATCGGGGA,-0.0445
11,AGCGGATA,0.136
12,CTAACAAG,-0.0999
13,ACGTTCCT,0.302
14,GGAATACA,-0.045
15,ACCAAGAG,-0.279
16,AGGATCCT,0.134
17,CTGTACAG,0.0526
18,CTTTGGGA,-0.185
19,CGAAGCTA,0.207
20,GCAACAAA,-0.00069
21,CCGACAGA,0.224
22,CGCCTCTA,-0.0424
23,CCCCACAA,-0.197
24,ACATTACG,0.151
25,ATGCTTGC,-0.111

row,Sequence,PBM E-score
1,CCCTGCGC,-0.2
2,AAACTATG,-0.237
3,ACGTTAAA,0.213
4,ACTGATTA,-0.0946
5,TCGTGTCA,0.168
6,CGTGCTTC,0.0165
7,CGTTAAAG,0.33
8,CCACGTAG,-0.0926
9,AAGACCAA,-0.0667
10,AAGGGGCG,-0.306
11,GCGCTTCA,-0.0388
12,GAGACTGC,-0.128
13,ATCACCCC,-0.154
14,AACTTATC,-0.0669
15,GCGCGTCC,-0.0857
16,CTAAAAAC,0.0187
17,CCTAGCCG,-0.208
18,AGCCCAGA,-0.163
19,ACAACAGA,-0.229
20,ATAGGCAG,-0.103
21,CGTACTTC,0.344
22,TACCCGAA,0.236
23,CGCACCTA,0.0572
24,ACATATCG,0.117
25,GAGGTTCA,0.025

row,Sequence,PBM E-score
1,TGAGAAAA,-0.205
2,GCACTGCC,-0.0432
3,CATTTCTC,-0.0553
4,AACCCCCA,-0.325
5,AAACCGAT,0.0836
6,CAGCGGCC,-0.186
7,CGTTATAG,-0.0415
8,ATGTGGTG,0.0867
9,GCGGCTCA,-0.0342
10,ATTCCAAA,-0.141
11,CGATAGAG,0.166
12,CGCACTCA,0.0863
13,GGCCGGCA,-0.154
14,TGACCACA,-0.287
15,ACTTCTAG,-0.222
16,AAACATAG,-0.0903
17,AAGTGCGG,-0.237
18,CCATTGTC,-0.211
19,AGCCGTAG,0.0779
20,ATTGGGGG,-0.243
21,ACATGTTC,-0.0332
22,GCCAGTAA,-0.051
23,ACAATAGA,-0.00658
24,AATTGTGC,0.0283
25,CGGCCGCC,-0.0473

row,Sequence,PBM E-score
1,CCTATCGA,-0.186
2,GAGGCCGA,0.0575
3,CGTCAGGC,-0.163
4,CTCCCACC,-0.101
5,CGTCTAGA,0.0727
6,ACTTTATG,-0.0212
7,GCGTACGA,0.448
8,TAATAGGA,-0.0272
9,CGTGCTCA,-0.0532
10,CCACGACG,-0.116
11,GATGCCAA,-0.112
12,AGGGTTTA,-0.0818
13,TCTTTAAA,-0.0798
14,ATTGAGGG,-0.259
15,ATAAGTAT,0.142
16,CCGCTCCC,0.131
17,AGACTCAC,-0.22
18,CAGGTTAG,-0.171
19,CTTCGTTA,0.303
20,ATATCTAG,-0.0386
21,ATTCGCCG,0.19
22,CGCGTAAG,0.165
